The values that follow come from patent US9839646B2, “Small molecule enhancer for dendritic cell cancer vaccines” (priority 2011, dated 2017).

Where two headings read alike, the source gives them in different places.

One series concerns RMS. Put plainly: Established RMS tumor model with RMS DC vaccine. The series is classed as in vivo, C57BL/6 mice. The procedure: C57BL/6 mice bearing established RMS were vaccinated intramuscularly in a hind limb with RMS DC vaccine on day 10 after tumor inoculation. […] Another group of mice received vaccine but no compounds and groups of unvaccinated mice received compounds or vehicle. 8 replicate mice were treated in each regimen.
The RMS cell line was derived from Ink4a/Arf^−/− mice transgenic for hepatocyte growth factor/scatter factor (HGF/SF) that develop malignant RMS with high penetrance. DC vaccine will be prepared by incubating bone marrow derived DCs with apoptotic bodies generated from RMS cells as previously described. Tumor growth was monitored by caliper measurement every 2 days.

The test system of series [1] is RMS M3-9-M. Kind of series: Tumor-primed T cell transfer, late treatment RMS M3-9-M model. The class given is in vivo, mice.
For series [2], the system named is RMS M3-9-M. Put plainly: Adoptive T cell transfer in Rag1-/- recipients, RMS M3-9-M. The class given is in vivo, Rag1-/- mice. The text has this:
(A) Female Rag1^−/− mice received naïve or RMS-primed T cells one day after tumor challenge.

Series [3] deals with RMS M3-9-M. Put plainly: DC vaccination late treatment model, RMS M3-9-M. The series is classed as in vivo, mice.
The next series concerns G-CSF and CXCL1. Kind of series: Cytokine assay in BALB/c mice (serum ELISA). The class given is in vivo. The procedure: Method for Cytokine Assay in BALB/c Mice. […] Blood was collected by cardiac puncture at various times post-dose and serum was prepared for analysis by ELISA. The samples were assayed for mouse mouse cytokines G-CSF and mouse CXCL1 using ELISA kits from R&D Systems (Cat. No. MCS00 and MKC00B respectively). All measurements were made in duplicate. Serum samples were diluted as necessary to obtain values within the range of the assays. Optimal dilutions required varied depending on the test agent and can range from no dilution for control samples or test agents with no activity to 1:1000 dilution for very high samples. […] The dose response varies with test agent but 20 μg/mouse dose is an acceptable baseline dose for response assessment. Typically 6 animals are measured for each agent at each time point.

Another series concerns NK cells. Kind of series: NK cell marker expression in treated nude mice. The series is classed as in vivo. As to conditions: NK cells from treated nude mice.
The test system of a further series is human NK cells. Put plainly: CD69 induction on human NK cells in vitro. As to conditions: cultured human PBLs, 1 day incubation. The series is classed as cell-based. The procedure:
The results shown are with cultured human PBLs from two healthy donors after a 1 day incubation.

The subject of series [4] is RMS M3-9-M. Put plainly: Tumor rechallenge, M3-9-M RMS model. The class given is in vivo, C57BL/6 mice. As to conditions: 200 μg oral on days 3-7, 17-21, 24-28, 31-35; rechallenge day 56, no additional treatment; n=7, p=0.0175. As for the experimental part: An effective vaccine for cancer would have the advantage of establishing immunological memory that can protect against disseminated metastasis or tumor regrowth following clinical response to initial treatment. […]. Mice were monitored for secondary tumor growth for a further 20-30 days without any additional therapeutic treatment. […] Groups of 4 mice were tested for immunological memory. […].

The subject of the next series is Th17 cells. As to conditions: in vitro; V. Kuchroo, unpublished data; cited from earlier work.
Series [5] in a line: Maximum tolerated dose study in Sprague Dawley rats.
In series [6] the test system is proinflammatory cytokine and chemokine mRNA. As to conditions: 2 hours after oral administration; tumor and lymph node tissue; cited from earlier work.
For series [7] the following is noted: C57BL/6 mice, cited from earlier work.

`CC(C)(C)[C@H](N)C(=O)N1CCC[C@H]1B(O)O` [ARI-4175, t-butylGly-boroPro]: the “tumor regression by day 25” value with RMS (compound by itself, no vaccine, daily gavage 10 mg/kg cycle 1, 5 mg/kg cycles 2 and 3) was 3/8. Further, the tumor growth entry in the series with RMS (compound by itself, 10/5 mg/kg daily gavage) was “significantly slowed tumor growth”. Moreover, the tumor regression in the series on RMS (in combination with RMS DC vaccine, daily gavage 10 mg/kg cycle 1, 5 mg/kg cycles 2 and 3) is listed as 6/8. Besides, the mouse survival result with RMS (in combination with vaccine, P=0.0045) is on record as “increased mouse survival significantly”. Moreover, the “tumor volume compared to saline” value with RMS M3-9-M [1] (ARI-4175 alone, n=10, p=0.0019) is “significantly smaller tumors”. In the series on RMS M3-9-M [1] (plus naive T cells, n=10), the survival was found to be 40%. Also, in the series on RMS M3-9-M [1] (plus primed T cells, difference not significant, n=10, p=0.0755), the “tumor volume compared to ARI-4175+naive T cell recipients” value is on record as “smaller tumors”. In the series on RMS M3-9-M [1] (plus primed T cells, n=10), the “survival to day 80” value was “Eight of ten”. The “tumor size by day 10 vs saline treated mice” value in the series with RMS M3-9-M [2] (Rag1-/- mice given naive (p=0.0159) or primed (p=0.0079) T cells, n=5) was “significantly smaller tumors”. In addition, in the series on RMS M3-9-M [2] (in combination with tumor-primed T cells), the tumor size overall entry was “smallest tumors overall”. Besides, the “tumor size compared to ARI-4175 alone” value in the series on RMS M3-9-M [3] (combination with DC vaccine, n=7, p=0.0481) is “significantly smaller tumors”. In addition, the “survival compared to controls” value in the series with RMS M3-9-M [3] (with sham vaccine or DC vaccine, n=7, p<0.001) is “significantly improved survival”. Moreover, the “induction of cytokines in vivo” value in the series on G-CSF and CXCL1 (BALB/c mice, serum) was “very potent inducer of cytokines”. For the same molecule, in the series on G-CSF and CXCL1 (after administration), the “stimulation of G-CSF, time course” value is recorded as “increased until 6 h”. Besides, in the series with G-CSF and CXCL1 (after administration, had disappeared by 6 h), the “CXCL1 induction, time course” value is “rapidly induced at 3 h”. In addition, in the series on G-CSF and CXCL1 (much lower levels than G-CSF and CXCL1), the “serum IL-18, IL-1β and IFN-γ compared to vehicle” value is given as “increased”. For the same molecule, in the series with NK cells, the “NK cell expression of FcγRIII receptor CD16” value is reported as “increased”. Besides, the “NK cell expression of degranulation marker LAMP-1” value in the series on NK cells is “increased”. For the same molecule, the “activation marker CD69 on human NK cells” value in the series with human NK cells is on record as “increased”. In addition, the “outcome of tumor rechallenge” value in the series with RMS M3-9-M [4] was “initial growth followed by rejection in all mice”. Besides, in the series with Th17 cells, the “development of IL-17 producing Th17 cells” value is “stimulate development”. Besides, the deaths result in [5] (0.01 mg/kg SQ, 48 hours post-dose) is recorded as “did not result in any deaths”; in series [5] (0.025 mg/kg SQ), “one death”; in [5] (0.05 mg/kg SQ, within first 24 hours, six rats), “at least one animal death”. For the same molecule, the adverse effects entry in [5] (0.05 mg/kg PO) is reported as “no adverse effects”.

For `CC(C)[C@H](N)C(=O)N1CCC[C@H]1B(O)O` [PT-100, Val-boroPro, reference compound], the “mice with reduced tumor growth” value in the series on RMS (1 mg/kg with the vaccine) is on record as 2 out of 6. For the same molecule, in the series with RMS (1 mg/kg, either with or without DC vaccination), the “tumor regression by day 25” value was “failed to produce tumor regression”. Besides, the “stimulation of G-CSF and CXCL1/KC” value in the series on G-CSF and CXCL1 (BALB/c mice, serum) was “stimulates”. In series [6], the “expression of proinflammatory cytokine and chemokine mRNA” value is “stimulates expression”. Besides, the results for the MTD in series [7] and in series [7] (end point mortality) were approximately 2 mg/kg and approximately 2 mg/kg/day, respectively.
